The source of these data is the supplement of paper PMC10338343.

± gives the standard deviation. Over roughly 3,700 sequences, “pre-steady-state target cleavage rate” has its median near 0.02; the highest 2% begin near 0.23. The entries are a selection whose mix differs from that of the whole data set.

This experiment deals with MILI (PIWIL2) piRISC loaded with Kctd7 piRNA (26 nt). Kind of experiment: pre-steady-state target cleavage rate (min^-1); MIWI and MILI are mouse PIWI proteins and EfPiwi is from a freshwater sponge; tags in brackets are library labels; higher = faster piRNA-guided slicing of the target. To be noted: guide: Kctd7 piRNA 5'p-UGUUAAUCUCUCAGAGAAGGUGACAG; auxiliary factor: 500 nM mouse GTSF1. The protocol: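 Cleave-'n-Seq: a library of target RNAs (target site embedded in constant flanks, ACAGCATTCCGCGTTAGTGATATCCG... 5' flank; DNA-blocked outside the site) at 0.1 nM was incubated with 1 nM active mouse MILI or MIWI piRISC (synthetic 5'-monophosphorylated piRNA guide) with or without 500 nM mouse GTSF1 at 33 °C for 1 min to 16 h. Uncleaved targets were sequenced and normalised to non-target controls, and the pooled three trials were fitted to a burst-and-steady-state model to give the pre-steady-state cleavage rate (min^-1; k3 is constrained to at most 1e-4). Sequence is the target site only; target names encode pairing extent (gX:gY) and contiguous / 1-mismatch / 2-mismatch / bulge geometry. Fits with R² ≤ 0 are excluded.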
UAGUCUCUCACGUUCUCUGAGAGAUUAACA: the “pre-steady-state target cleavage rate” value was determined as 0.0167 ± 0.0062.
In the case of UAGUCUCUCACCUUCUCAGAGAGAUUAACA, the “pre-steady-state target cleavage rate” value was 0.0512 ± 0.0067.
As for UAGUGACUCACCUUCUCUGAGUGAUUAAGA, the “pre-steady-state target cleavage rate” value is under 0.0001.
The figure for UAGUGUGUCUGCUUCUCUGAGAGAUUAACA is 0.157 ± 0.0089; for UAGUGACUCAGCUUCUGUGAGAGAUUAACA it is 0.0894 ± 0.016.
To UAGUGACAGUGGAAGUCUGAGAGAUUAACA belongs 0.00299 ± 0.0013; to UAGUCUGUCACCAUCUCUGAGAGAUUAUCA, 0.0805 ± 0.0099; to UAGUGACUCACCAUCUCUGAGAGAUAAACA, 0.0294 ± 0.0073.
The figure for UAGUGACACACCUUGUCUGAGAGAUUAACA is 0.104 ± 0.019; for UAGUGACAGUGGAAGAGUGAGACAAUAACA it is under 0.0001; for UAGUCUGUCACCUUCUCAGAGAGUUUAACA it is 0.142 ± 0.036.
With UAGUGACAGUCCUUCUCUGAGUCUUUAACA, the “pre-steady-state target cleavage rate” value was under 0.0001.
The figure for UAGUGUGUCACCUUCACUGAGAGAUUAACA is 0.141 ± 0.013; for UAGUGUGUCACCUUCUCAUGAGAGAUUAACA it is 0.0313 ± 0.013.
To UAGUCUGUCACGUUCUCUGAGAGAUUAAGA belongs 0.0713 ± 0.01.
Consider UAGUGAGUCACCUUCUCUGAGAGUAAAACA, for which the “pre-steady-state target cleavage rate” value worked out at 0.14 ± 0.045.
The figure for UAGUGUGUCACCUUCUCUAGAGAUUAACA is 0.0216 ± 0.0081.
To UAGUGAGUCACCUUCUCUGAGAGAAUAACA belongs 0.163 ± 0.04; to UAGUGACUCACCUUCUCUCAGAGAUUUACA, 0.0292 ± 0.0097; to UAGUGAGUCACCUUCUCAGAGUGAUUAACA, 0.00474 ± 0.0042.
To UAGUGACACACCUUCCUCUGAGAGAUUAACA belongs 0.0599 ± 0.011; to UAGUGACAGUCCUUCUCUGAGAGAUCAACA, 0.0166 ± 0.0039; to UAGUGACUCACCUUCACUGAGAGAUUAACA, 0.0772 ± 0.0082.
Consider UAGUGUGAGUCCUUCUCUGAGAGAUUAAGA, for which the “pre-steady-state target cleavage rate” value was 0.00978 ± 0.0042.
The figure for UAGUGACAGAGCUUCUCAGAGAGAUUAACA is 0.0123 ± 0.0046; for UAGUGACACACCUUCUCUGAGCGAUUAACA it is 0.0067 ± 0.0041.
In the case of UAGUGUGUCACCUUCUCUGAGAGAUUAUACA, the “pre-steady-state target cleavage rate” value was 0.157 ± 0.035.
Take UAGUGUCUCACCUUCACUGAGAGAUUAACA: the “pre-steady-state target cleavage rate” value stood at 0.0938 ± 0.0093.
Turning to UAGUCUGUCAGGUUCUCUGAGAGAUUAACA, the “pre-steady-state target cleavage rate” value was 0.101 ± 0.0066.
To UAGUGACAGUGGAAGUCUGAGACAAUAACA belongs under 0.0001; to UAGUGACAGACCAUCUCUCAGAGAUUAACA, 0.0122 ± 0.0049.
Turning to UAGUGACAGUCCUUCUCUGAGAGAGUUAACA, the “pre-steady-state target cleavage rate” value turned out to be 0.0656 ± 0.017.
The figure for UAGUCUGUCACCUUCUGUCAGAGAUUAACA is 0.0393 ± 0.0061.
UAGUGACAGACCUUCUCUGAUAGAUUAACA: the “pre-steady-state target cleavage rate” value amounted to 0.0352 ± 0.011.
To UAGUGACAGUGCUUCUCUGAGAGUUUAACA belongs 0.00499 ± 0.0023; to UAGUGACACACCUUCACUGAGUGAUUAACA, 0.00425 ± 0.0037; to UAGUCUCUCACCUACUCUGAGAGAUUAACA, 0.0442 ± 0.01.
To UAGUGUGUCACCUUCUCUGAGAGAAUAACA belongs 0.167 ± 0.039; to UAGUGUGUCACUCUUCUCUGAGAGAUUAACA, 0.0903 ± 0.01.
The figure for UAGUGACAGAGCUUGUCUGAGAGAUUAACA is 0.078 ± 0.014; for UAGUGUGUCACGUUCUCUGACAGAUUAACA it is 0.0341 ± 0.0058; for UAGUGACAGACCAUCUCUGAGAGAUUAACA it is 0.0563 ± 0.0097.
For UAGUGACAGUCCUUCUGUGAGAGAAUAACA, the “pre-steady-state target cleavage rate” value is 0.00447 ± 0.003.
The figure for UAGUGUGUCACCUUCUCUGUGAGAUUUACA is 0.0554 ± 0.013.
Regarding UAGUGACACACCAUCUCAGAGAGAUUAACA, the “pre-steady-state target cleavage rate” value was 0.04 ± 0.0099.
The figure for UAGUGACAGUCACUUCUCUGAGAGAUUAACA is 0.114 ± 0.011.
To UAGUGACAGUGCAUGUCUGAGAGAUUAACA belongs 0.00391 ± 0.0029; to UAGUGACUCACCAUCUCUGAGAGAUUAAGA, 0.00889 ± 0.0033; to UAGUGUGUCUCGUUCUCUGAGAGAUUAACA, 0.0972 ± 0.012.
The figure for UAGUGACACACCUUCUCUGUAGAGAUUAACA is 0.00775 ± 0.0035; for UAGUGACACACCUUCUCUGAGAGUAUAACA it is 0.0621 ± 0.016.
Regarding UAGUGAGUCACCUUCUCUGAGAGGUUAACA, the “pre-steady-state target cleavage rate” value was 0.142 ± 0.019.
UAGUGACAGACCUUGUCUGAGAGUUUAACA: the “pre-steady-state target cleavage rate” value came out at 0.00958 ± 0.0044.
To UAGUGACACACCUUCUCGGAGAGAUUAACA belongs 0.0735 ± 0.0079.
To UAGUGACAGAGCUUCUCUGAGAGAUUAAGA belongs 0.00374 ± 0.0035.
The figure for UAGUGAGUCACCUUCUCUGAGGGAUUAACA is 0.164 ± 0.02; for UAGUGACUCACCUAUCUCUGAGAGAUUAACA it is 0.151 ± 0.012; for UAGUGACAGUGCUUCUGUGAGAGAUUUACA it is 0.0118 ± 0.0044.
As for UAGUGACUCUCCUUGUCUGAGAGAUUAACA, the “pre-steady-state target cleavage rate” value came out at 0.0532 ± 0.014.
To UAGUGACUCACCAACUCUGAGAGAUUAAGA belongs 0.0119 ± 0.0036; to UAGUGUGAGACCUUCUCUGAGAGAUUAAGA, 0.0278 ± 0.012.
The figure for UAGUGACAGUGGUUCUCUGAGAGAUGUAACA is under 0.0001; for UAGUGACAGUGGAACUCUGAGUCAUUAACA it is 0.0129 ± 0.0098; for UAGUGUCACACCUUCUCUGAGAGAUUAUGA it is 0.0704 ± 0.025.
To UAGUGAGUGACCUUCUCUGAGAGUUUAACA belongs 0.137 ± 0.03; to UAGUGUGUCACCUUCUGAGAGAGAUAUUGA, 0.00647 ± 0.0056.
With UAGUCUGUCUCCUUCUGUGAGAGAUUAACA, the “pre-steady-state target cleavage rate” value was 0.139 ± 0.011.
The figure for UAGUGACUCCACCUUCUCUGAGAGAUUAACA is 0.163 ± 0.017.
The figure for UAGUGACAGACCUUCUCUGAGAGGAUUAACA is 0.0736 ± 0.014.
Consider UAGUCUGUCACGUUCUCUGAGAGAUUAUGA, for which the “pre-steady-state target cleavage rate” value was 0.0171 ± 0.0039.
To UAGUGACAGUGGUUUUCUGAGAGAUUAACA belongs 0.0108 ± 0.0021; to UAGUGACAGACCGUCUCUGAGAGAUUAACA, 0.0355 ± 0.0065.
